This experiment relates to cultured PBMCs of the allergic donors. Put plainly: ELISPOT of IL-5 or IFNg production by cultured PBMCs of TG allergic donors in response to peptide. The class given is cell-based, human. From the text: Table 1 indicates for each of the 397 PG+ peptides in which non-grass pollen species a matching peptide with either less than 3, less than 2 or zero mismatches are found. The number of TG grass allergic donors (n=20) with an in vitro T cell response to the TG peptide sequence is also shown.
A set of 93 proteins from Timothy grass (TG) pollen and the assembly of 822 peptides (15 mers) predicted to promiscuously bind HLA class II molecules shown in Table 9 and the immune reactivity in allergic donors have been reported in PCT application WO 2013/119863. […] Immune reactivity was determined by the production of IL-5 or IFNg from cultured PBMCs of the allergic donors in response to stimulation with a peptide and IL-5 and IFNg were measured by ELISPOT as described in Oseroff C et al, 2010.
In short, T cell immune reactivity was determined using PBMCs isolated from study participants and stored in liquid nitrogen until further use. For experimental testing, PBMCs were thawed and expanded in vitro with TG pollen extract (50 μg/mL) or the peptide pool ([…]). The TG extract and peptide pools had each been previously titrated to determine optimal stimulation concentrations.
Cytokine production by cultured PBMCs in response to antigen stimulation was measured by ELISPOT. Cells (1×10^5 cells/well) were plated and incubated with peptide (10 μg/mL), the peptide pool (5 μg/mL), or the TG extract (50 μg/mL). Phytohaemagglutinin (10 μg/mL) and medium alone were used as positive and negative controls, respectively. Samples were considered to produce a cytokine if 100 spot-forming cells (SFCs)/10^6 PBMCs were detected, with P .05 and a stimulation index of 2 or more. Criteria for individual peptides were the same except that a minimum of 20 SFCs were required for a sample to be counted as positive.
Table 3 lists the 397 PG+ peptides and indicates for each non-grass pollen species whether a matching peptide with either less than 3, less than 2 or zero mismatches could be detected. The immune reactivity of the TG peptide was assessed as the number of TG grass allergic donors (n=20) having in vitro T cell response against the TG peptide.

B1: NTGA 22: Phl p wild type sequence, Table 2 (protein)
chain: MALPNQGTVDYPSFKLVIVGDGGTGKTTFVKRHLTGEFEKKYEPTIGVEVHPLDFTTNCGKIRFYCWDTAGQEKFGGLRDGYYIHGQCAIIMFDVTSRLTYKNVPTWHRDLCRVCENIPIVLCGNKVDVKNRQVKAKQVTFHRKKNLQYYEISAKSNYNFEKPFLYLARKLAGDANIHFVEAVALKPPEVTFDLAMQQQH
modifications: Phleum Pratense
With B1, the “immune reactivity (SFC counts in ELISPOT) of highly conserved PG+ peptides derived from the NTGA” value is recorded as “high immune reactivity”. The “NTGA's containing at least one T cell epitope, Th+ (Col 2)” value (NTGA number given = criterion met, TG allergic donors n=20) came to 22. In addition, for the setting “Table 6, PG+ peptides recognized by T cells of grass allergic donors (n=20)”, the “No of PG+ & th+ peptides per NTGA” value was 4. The “No of PP & Th+ peptides per NTGA” value (Table 6, PP peptides recognized by T cells of grass allergic donors (n=20)) is 3. Further, the “# Th+” value (Table 7, peptides per NTGA recognized by T cells of grass allergic donors (n=20)) is 0.

For the origin of these results see patent US20160287696A1, “PAN POLLEN IMMUNOGENS AND METHODS AND USES FOR IMMUNE RESPONSE MODULATION” (LA JOLLA INSTITUTE FOR ALLERGY AND IMMUNOLOGY, priority 2013, published 2016).
